In patent publication US20230048360A1 (EUREKA THERAPEUTICS, published 2023):

T1: biotinylated GPC3-51mer fragment (human, biotinylated (site not stated))
T1 construct: Synthesized by Elim Biopharmaceuticals; also called bt-GPC3-51mer; hGPC3-51mer fragment
T1 peptide: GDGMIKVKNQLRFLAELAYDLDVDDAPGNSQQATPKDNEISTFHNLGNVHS

B1: GPC3A-47 phage clone (scFv)
scFv: LPVLTQPPSASGTPGQRVTISCSGSRSNIASNDVYWYQQLPGTAPKRLIYKKNQRPSGVPDRFSASKSGTSASLAISGLRSEDEADYYCAAWDDNLSGYVFGTGTKVTVLGSRGGGGSGGGGSGGGGSLEMA[sequence of about 100 residues omitted]SDYGSLYDKWGQGTLVTVSS
notes: also called GPC3A-047
B2: #56 GPC3A L2K (bispecific antibody)
tandem di-scFv: [sequence of about 100 residues omitted]RSRGGGGSGGGGSGGGGSLEMAQVQLQQSGAEVKKFGASVKVSCKASGYSFNDYYIHWVRQAPGQGLEWMGWINPNNGDTKYEKKWQGRVTMTRDTSITTAYMELSSLRSDDTAVYYCARFSTHNWWWPTYDYWGQGTLVTVSSTSGGGGSDVQLVQSGAEVKKPGASVKVSCKASGYTFTRYTMHWVRQAPGQGLEWIGYINPSRGYTNYADSVKGRFTITTDKSTSTAYMELSSLRSEDTATYYCARYYDDHYCLDYWGQGTTVTVSSGEGTSTGSGGSGGSGGADDIVLTQSPATLSLSPGERATLSCRASQSVSYMNWYQQKPGKAPKRWIYDTSKVASGVPARFSGSGSGTDYSLTINSLEAEDAATYYCQQWSSNPLTFGGGTKVEIKHHHHHH
notes: also called GPC3A-56 L2K; GPC3-56 L2K
B3: GPC3-41 L2K (bispecific antibody)
tandem di-scFv: QAVLTQPPSASQTPGQMVTISCSGTSSNIGSNYVFWYQQLPGTAPKLLIYKNFQRPSGVPGRFSGSKSGTAASLAISGLRSEDEADYFCAAWDDALSGYVFGAGTKVTVLGSRGGGGSGGGGSGGGGSLEMA[sequence of about 100 residues omitted]SGKYYGDKWGQGTLVTVSSTSGGGGSDVQLVQSGAEVKKPGASVKVSCKASGYTFTRYTMHWVRQAPGQGLEWIGYINPSRGYTNYADSVKGRFTITTDKSTSTAYMELSSLRSEDTATYYCARYYDDHYCLDYWGQGTTVTVSSGEGTSTGSGGSGGSGGADDIVLTQSPATLSLSPGERATLSCRASQSVSYMNWYQQKPGKAPKRWIYDTSKVASGVPARFSGSGSGTDYSLTINSLEAEDAATYYCQQWSSNPLTFGGGTKVEIKHHHHHH
notes: also called GPC3A-41 L2K
B4: GPC3-49 L2K (bispecific antibody)
tandem di-scFv: QAVLTQPSSASGTPGQRVTISCSGGSSNIGSNYVYWYQQLPGTAPKLLIYRNNQRPSGVPDRFSGSKSGTSASLAISGLRSEDEADYYCAAWDDSLSGWVFGGRTKLTVLGSRGGGGSGGGGSGGGGSLEMA[sequence of about 100 residues omitted]HGGIGSMRSFDQWGQGTLVTVSSTSGGGGSDVQLVQSGAEVKKPGASVKVSCKASGYTFTRYTMHWVRQAPGQGLEWIGYINPSRGYTNYADSVKGRFTITTDKSTSTAYMELSSLRSEDTATYYCARYYDDHYCLDYWGQGTTVTVSSGEGTSTGSGGSGGSGGADDIVLTQSPATLSLSPGERATLSCRASQSVSYMNWYQQKPGKAPKRWIYDTSKVASGVPARFSGSGSGTDYSLTINSLEAEDAATYYCQQWSSNPLTFGGGTKVEIKHHHHHH
notes: also called GPC3A-49 L2K

Tests used:
[1] = biological target: T1, biotinylated GPC3-51mer fragment; assay: phage ELISA on biotinylated GPC3-51mer
[2] = biological target: T2, cell surface-bound human GPC3 on GPC3+ HepG2 cells (human, UniProt P51654 25-560, GPI anchor and heparin sulfate side chains, as the filing describes native GPC3); assay: FACS on GPC3+ HepG2 cells, labelled on the sheet GPC3A L2K against control L2K; control L2K median 93.8; axis PE-A
T2 construct: Endogenous GPC3 of the HepG2 line; also called Glypican 3; native GPC3

[3] = biological target: T2, cell surface-bound human GPC3 on GPC3+ …; assay: FACS on GPC3+ HepG2 cells, L2K pre-mixed with or without soluble bt-GPC3(560), APC anti-His; soluble GPC3 concentration not shown on the sheet

Binder	binding result [3]	also measured
B1	–	binding result [1]: no binding
B2	–	Median : PE-A [2]: 5630
B3	binds	–
B4	binds	–
